Data reported in ChEMBL document CHEMBL4888484, “Replenishing the malaria drug discovery pipeline: Screening and hit evaluation of the MMV Hit Generation Library 1 (HGL1) against asexual blood stage Plasmodium falciparum ,using a nano luciferase reporter read-out” (2022).
Screen size: about 150,000 compounds; about 540 (0.36%) showed an effect of 50% or more. The list shows a part of the results.

Tested on: Plasmodium falciparum
Experiment: Primary screen in NF54 nanoGlo assay, in single point, at 2uM, 72h; a lower Z score goes with more inhibition
Type: functional, Erythrocyte
Settings: timepoint 72 hour

SMILES	% Inhibition	Z score
CCOC(=O)c1nc(N(CC)Cc2ccccc2)c2ccccc2n1	-1%	0.11
CCN1C(=O)CCN(S(=O)(=O)c2ccc3c(c2)OCCO3)CC12CCOCC2	3%	-0.42
Nc1nnc([C@H]2CCCN(CC(=O)N3CCC(Cc4ccccc4)CC3)C2)o1	-5%	0.72
COC(=O)[C@@H](NCc1cnc(C)cn1)C(C)(C)C	-9%	0.96
CC1CC(C(=O)N[C@@H](C)c2cnccn2)CC(C)(C)C1 (stereo partly drawn)	8%	-0.99
O=C1CCCCCN1CC(=O)N1CC[C@@]2(CCCN(CC3CCC3)C2=O)C1	9%	-1.08
O=C(c1cccc(F)c1F)N1CCOC[C@H]1c1nc(-c2cccs2)no1	7%	-1.03
Cc1ccccc1[C@H]1CCCN(Cc2ccnn2C)C1	-4%	0.61
Cc1ccc2c(c1)CCCN2C(=O)c1cc(C)no1	-16%	2.13
COc1ccc2c(c1)C(N1CCN(S(=O)(=O)c3cccc(F)c3)CC1)=Nc1ccc(C)cc1O2	-15%	2.4
COC1CCN([C@@H](C)C(=O)N2CCCCCC2)CC1	2%	-0.46
COCCC(=O)N1CCCn2cc(-c3cccc(C#N)c3)nc21	-9%	1.48
COc1ccc2[nH]c3c(c2c1)CC(C(=O)O)NC3c1ccc(OC)c(CN2CCN(c3ccccc3F)CC2)c1 (stereo not drawn)	74%	-11.3
CCC(=O)Nc1cccc(C(=O)OC)c1C	-7%	1
O=C(Nc1cccc2nsnc12)[C@@H]1COc2ccccc2O1	3%	-0.37
Cc1cc(Cn2cnc3c(cnn3C)c2=O)nn1C	-7%	1.33
O=C1CC[C@H](C(=O)N2CCC(c3nc4ccccc4o3)CC2)CN1	30%	-3.4
O=C(NCc1ccccc1Cl)NCc1ccccc1CN1CCOCC1	-2%	0.18
O=C(N[C@@H]1CCC[C@H]1OC(F)F)N1CCc2n[nH]c(=O)cc2C1	-7%	0.62
Cc1nc(C2(c3ccc(Cl)cc3)CCC2)n(C[C@H]2COCCO2)n1	-5%	0.69
CC(C)Cc1nc(Cn2cc(Br)cn2)no1	-4%	0.58

SMILES	% Inhibition	Z score
CCn1nccc1-c1ccc2c(c1)OC[C@@H](N1CCCC1)[C@@H]2O	-6%	1.07
COc1ccc(-c2cc(C(=O)O)nc3c4cccnc4nn23)cc1	-17%	2.09
Cc1cccc(OCc2nc(C)c(C(=O)Nc3sc4c(c3C#N)CC[C@H](C)C4)s2)c1	-19%	1.72
O=C(c1ccc([C@H]2CCCNC2)cc1)N1Cc2ccccc2C1	-14%	2.37
O=S(=O)(Nc1ccccc1-c1nnc2n1CCCCC2)C1CC1	-6%	0.56
COc1cc(Cl)c(C)cc1NC(=O)c1cc(=O)n(-c2ccc(C)cc2)[nH]1	53%	-6.9
Cn1ccc([C@H]2CCCN(C(=O)CNC(=O)c3ccccc3)C2)n1	-28%	3.22
O=C(NCc1ccco1)c1ccccc1NS(=O)(=O)c1ccc2c(c1)OCCO2	-3%	0.42
Cc1cc(NS(=O)(=O)c2ccccc2)n(-c2cc(C)c3ccccc3n2)n1	6%	-0.72
Cc1cc(CN2CCC(CO)CC2)c(C)s1	-1%	0.11
C=CCn1c(O)c(CN2CCN(Cc3ccccc3)CC2)c(C)c(C#N)c1=O	-14%	1.71
CCCCc1ccc(C(=O)N2[C@@H]3CC[C@H]2CNC(=O)C3)nc1	-24%	2.11
O=C(O)[C@H]1CCCN1C(=O)CC1CCc2ccccc2C1 (stereo partly drawn)	-12%	1.49
CC(C)CCn1ncc(C(=O)NCC2CCN(C)CC2)c1C(C)C	-1%	0.11
O=C(c1ccccn1)N1CC2CCCCC2C1 (stereo not drawn)	28%	-3.16
CC[C@@](C)(C(=O)NC1CCCC1)N(C(=O)Cc1cccs1)c1ccccc1	6%	-0.94
Cc1ccc(-n2nc(C)c3c2NC(=O)C[C@@H]3c2ccc(C(=O)O)cc2)cc1	-5%	0.67
CC[C@@H]1Oc2ccc(S(=O)(=O)N3CCN(C(=O)c4cc(OC)cc(OC)c4)CC3)cc2NC1=O	-18%	1.81
O=C(NCc1ccccc1)c1ccc(-c2cccs2)nc1	-20%	3.86
Cc1cc(COc2cccc(C(=O)NC3CC3)c2)on1	-1%	0.08
Cc1ccc(CS(=O)(=O)NC(=O)Cc2c[nH]c3ccc(F)cc23)c(C)c1	-5%	0.87

SMILES	% Inhibition	Z score
COc1cc(/N=C(/NCCN2CCOCC2)NC(=O)c2ccc3c(c2)OCO3)cc(OC)c1	-2%	0.2
O=C(NCC(F)(F)F)c1ccccc1F	-3%	0.65
CCn1ccc2cc(CN3C[C@@H]4CC[C@H]3CN(Cc3ccccn3)C4)ccc21	-3%	0.48
CC(=O)Nc1nc(-c2ccc3c(c2)N(Cc2ccccc2)C(=O)CO3)cs1	-10%	1.3
CCOC(=O)c1nccc(NC2C3CC2N(C(=O)OC(C)(C)C)C3)n1 (stereo not drawn)	-1%	0.19
COCCNC(=O)NCC1CCCN(C)C1c1cccs1 (stereo not drawn)	-8%	1.22
Clc1cccc2c1CC[C@@H]2NCc1csc(-c2ccccn2)n1	-7%	0.67
C[C@]1(c2ccccc2)CCC(=O)N(CC2CCOCC2)C1	-16%	3
Cn1nc(C(F)(F)F)c(CNC(=O)c2ccco2)c1Oc1ccccc1	1%	-0.19
Cc1ccc(S(=O)(=O)NC[C@H]2CC[C@H](C(=O)N[C@H](CC(C)C)C(=O)N3CCCCC3)CC2)cc1	-2%	0.44
O=C(NCCCCOc1ccccc1)c1ncoc1[C@@H]1CCCO1	-2%	0.28
CCn1nccc1C(=O)N1CCC[C@H](N(CCCN2CCOCC2)C(C)=O)C1	-4%	0.47
C[C@@H](c1ccncc1)N(C)Cc1ccc2c(c1)CCO2	-9%	1.02
COc1ccccc1CNC(=O)[C@]1(C)Cn2nc(-c3ccccc3)cc2C(=O)N1Cc1ccco1	-14%	2.16
Cc1ccc2c(c1)c1c(n2CCc2ccccn2)CCN(C2CCNCC2)C1	0%	0.06
Cc1csc(COc2ccc(C(=O)Nc3cccc4nc(C)ccc34)cc2)n1	-7%	1.37
Cc1ccccc1C(=O)NCCc1n[nH]c(C2CCCCC2)n1	-11%	2.12
Fc1cccnc1NCCc1cn2c(n1)CCCC2	1%	-0.1
Cc1nc(CCNC(=O)[C@H]2CCCN(C(=O)c3cccs3)C2)cs1	12%	-1.54
CN(CCC(C)(C)C)Cc1nccn1C	-3%	0.3
CS(=O)(=O)N1CCN(C(=O)COc2cccc3c2CCC3=O)CC1	0%	0.01

SMILES	% Inhibition	Z score
Cc1ocnc1CNC(=O)CC1=CCCCC1	-3%	0.37
COC(=O)c1ccc(Nc2ccc(N3CCCC3)c(C)c2)nn1	-4%	0.59
CCN1CCC(N[C@H]2C[C@@H](C(=O)NC(C)C)N(Cc3ccc4ccccc4c3)C2)CC1	-3%	0.43
O=C1Nc2ccc(Br)cc2[C@@H]1c1cc(Br)ccc1O	-11%	1.36
CC1(C)CN(CCCNC(=O)C2CCCC2)CCO1	-1%	0.1
COc1ccc(NC(=O)C2[C@H]3C=C[C@@]4(O3)C(C(=O)NC3CCCC(C)C3C)N(C3CCCCC3)C(=O)[C@@H]24)cc1 (stereo partly drawn)	3%	-0.32
CC(C)C(=O)N[C@@]1(C(F)(F)F)NC(=O)N(Cc2cccnc2)C1=O	-7%	1.12
Cn1cc(Cl)c(CNC(=O)N2CCC(OC3CCC3)CC2)n1	-18%	2.74
CC(C)Nc1nc(N(C)c2ccccc2)nc(-n2ccnc2)n1	5%	-0.65
COC(=O)c1ccccc1N(C)C(=O)CN1CCC[C@H]1c1ccc2c(c1)OCCCO2	-14%	1.46
CC(C)(C)c1nsc(NC(=O)N2CCN(c3ncccc3F)CC2)n1	13%	-2.09
C[C@@H](c1ccccc1)N(Cc1cccc(F)c1)Cc1nc(C(=O)NCc2ccccc2)co1	-5%	0.93
CN1CCN(C(=O)c2ccc(Oc3ccc(C(F)(F)F)cn3)cc2)[C@H](c2ccccc2)C1	-19%	2.43
Clc1cc(Br)ccc1-c1nnc(-c2cnccn2)o1	-9%	1.44
O=C(Nc1nc(-c2cccc(Cl)c2)cs1)[C@]1(O)CCCNC1	-18%	2.7
O=C(c1ncn2c(=O)n(C3CCCCC3)nnc12)N1CCOCC1	2%	-0.31
O=C(C[C@@H]1NC(=O)c2ccccc2N=C1O)NC1CCCCCCC1	-6%	0.8
COCCc1nc(CNC(=O)[C@@]2(C)CC[C@@H](C(=O)N(C)C)C2(C)C)no1	0%	-0.01
CCCNCCNC(=O)c1cc(Br)ccc1O	7%	-1.21
CN(C(=O)c1nnc(C(C)(C)C)s1)[C@@H](CCO)c1ccccc1	4%	-0.41
Cc1cccc(C)c1N1C(=O)[C@H]2[C@@H](C1=O)[C@]1(N[C@H]2C(C)C)C(=O)Nc2ccccc21	-3%	0.34
